Measurements reported in article doi:10.1101/2025.07.25.666771, “Importance of cysteines for the binding of S100A6 to the RAGE receptor – Towards a first molecular model for S100 covalent dimerization” (bioRxiv, 2025).

How the values were obtained:
[1] = target: S100A6 C3S-Y84C double mutant (murine, UniProt P14069, C3S | Y84C); assay: SEC; 600 µg RAGE VC1C2 mixed with a 10-fold molar excess of S100A6 in 20 mM Tris-HCl pH 7.5, 200 mM NaCl, 5 mM CaCl2, 400 µl; 3 hours at 37°C; Superdex 75 Increase 10/300 GL at room temperature in 20 mM Tris-HCl pH 7.5, 200 mM NaCl; non-reducing; fractions analysed by SDS-PAGE; settings: both partners purified
WT murine S100A6 = WT murine S100A6 (murine, UniProt P14069); assay: as above; settings: both partners purified

B1: human RAGE VC1C2 ectodomain (hRAGE-VC1C2; […]) (domain or fragment)
chain: not shown
notes: receptor for advanced glycation end-products (RAGE), human, VC1C2 ectodomain, […]; also called RAGE VC1C2 fragment; RAGE full-length ectodomain; source: recombinant; expression and purification as previously described [31]
B1: binds [1]; binds (WT murine S100A6).
